The whole screen tested about 45,000 compounds, of which about 65 (0.1%) were called active. The call rests on the fitted dose curve; in most records, active means well fitted activation curve with a large enough effect; inconclusive means small, poorly fitted or top-dose-only effect; inactive means no such curve, though single readings can be large or run the other way. The list shows a part of the results.
These compounds were tested against Galactocerebrosidase (Homo sapiens) (UniProt P54803) (assay: A Novel Cell-Based Assay to Identify Small Molecules for B -Galactocerebrosidase). Settings: 145M-Twi-hGALC-G270D cells, HMU-beta-Gal fluorescence, 48 h; series mostly up to 57.5 µM; activation: at the top concentration.
Procedure, shortened: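 qHTS, 1536-well; 145M-Twi-hGALC-G270D cells (WT line also made) in DMEM/F12 + 10% FBS; compound incubation on live cells; HMU-β-gal 0.1 mM final, pH 5.2, NaTC; carbonate stop; fluorescence increase = enhanced residual activity.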
Further: 0% is about no effect; nearly all actives have a fitted effect of over 65% in size.

activation, inactive:
Cc1ccc(-c2nnc(SCc3cccc(C#N)c3)o2)cc1 -2.5%
CCOC(=O)Cn1c(=O)n(-c2ccccc2OC)c2nc(-c3cccc(F)c3)nc(C(N)=O)c21 -39%
CCOC(=O)c1ccccc1NC(=O)N(C(C)C)C1CCN(C(C)=O)CC1 -4.09%
Cn1nnc2c(N3CCN(c4ccccc4Cl)CC3)ncnc21 -20.8%
COc1ccc(-c2nc(CN3CCC(C(=O)NCc4ccccc4)CC3)c(C)o2)cc1OC -11.7%
COc1ccc(-c2c3c(=O)n(C)c(=O)n(C)c3c3c(C)nc4ccccc4n23)cc1 -13.9%
CC(C)(C)c1ccc(-c2nc(SCCCOc3ccccc3)n3[nH]c(=O)cc3n2)cc1 -5.22%
Cc1ccc2c(c1)-c1c(cnc3cc(-c4ccccc4)nn13)CO2 -9.59%
CCCCc1ccc(NC(=O)c2ccc(=O)n(Cc3cccc(C)c3)c2)cc1 -36.9%
CN(C)CCNC(=O)c1ccc2c(=O)n3c(nc2c1)CCCCC3 -6.05%
COc1ccc(-c2nc(C)c(CCNS(=O)(=O)c3cc(C)c(C)cc3C)s2)cc1 -20.5%
O=C(NCCc1ccccc1)c1nnc(Cc2cccc(F)c2)o1 -16.3%
CCOC(=O)c1cccnc1SCC(=O)Nc1ccc(C)cc1C -9%
CCCCN(CCCC)CCNC(=O)c1cn(CC)c2ccc(S(=O)(=O)N(C)C3CCCCC3)cc2c1=O -23.4%
COc1ccc(Cl)cc1NS(=O)(=O)c1ccc2c(c1)NC(=O)CC(=O)N2 -7.61%
CCOc1ccc(NC(=O)Cn2c(=O)n(-c3cccc(OC)c3)c(=O)c3c4c(sc32)CCCC4)cc1 -3.39%
CCc1ccc(NC(=O)c2ccc3[nH]c(C)c(C)c3c2)cc1 0.763%
CCN(Cc1ccccc1)C(=O)CN(c1ccc(OC)cc1)S(=O)(=O)c1c(C)nn(C)c1C 1.04%
Cc1ccc(C)c(Cn2cc(S(=O)(=O)c3ccc(Cl)cc3)c(=O)c3cc(F)ccc32)c1 26.1%
O=C(CCS(=O)(=O)c1cccs1)Nc1ccc(C(=O)Nc2ccccc2F)cc1 3.6%
CCSc1ncc(Cl)c(C(=O)Nc2ccc(S(=O)(=O)N3CCCCC3)cc2)n1 -21.9%
Cc1ccccc1NC(=O)CSc1nc2c(c(=O)n(C)c(=O)n2C)n1Cc1ccccc1F -6.03%
Cc1cc2c(cc1S(=O)(=O)N1CCCCC1)OCC(=O)N2 7.17%
CCOCCCNc1ncnc2c1cnn2-c1ccc(C)c(C)c1 -13.2%
COCCNC(=O)Cn1c(=O)n(CCCCCC(=O)NCc2ccc3c(c2)OCO3)c(=O)c2sccc21 2.45%
Cc1ccc(-c2c(C)n3c4c(=O)n(C)c(=O)n(C)c4nc3n2CCO)cc1 -13.1%
CCOC(=O)C1CCN(C(=O)Cn2c(=O)oc3cc(S(=O)(=O)N4CCC(C)CC4)ccc32)CC1 -8.77%
CC(=O)N1CCc2c(sc3c2c(=O)n(CCc2ccccc2)c(=O)n3Cc2ccc(Cl)cc2)C1 -22.7%
CC(C)(C)c1ccc(S(=O)(=O)N2CCN(Cc3noc(CCC(=O)N4CCCCC4)n3)CC2)cc1 -1.04%
CN1[C@@H]2CC[C@H]1CC(OC(=O)C(O)c1ccccc1)C2 (stereo partly drawn) -8.81%
O=C(CN1C(=O)CCc2cc(S(=O)(=O)N3CCOCC3)ccc21)NCc1ccccc1 1.23%
COc1ccc(-c2nc(CSc3nncn4c3cc3sccc34)c(C)o2)cc1OC 7.01%
CCNc1nc(OC)nc(Oc2ccc(=O)[nH]n2)n1 -15.5%
COc1ccc(C(=O)n2nc(-c3ccco3)nc2NCc2cccs2)cc1OC -11%
CCc1ccccc1NC(=O)N(C)CCc1c(C)nn(C)c1C -17.7%
Cc1ccc(-c2nc3sc(CCNC(=O)c4ccc(C)c(C)c4)c(C)n3n2)cc1 -10.7%
Cc1cc(C)cc(S(=O)(=O)c2cn(C)c3cc(N4CCCC4)c(F)cc3c2=O)c1 -17.4%
CCCNC(=O)c1ccc2nc(CCc3ccccc3)oc2c1 -6.29%
CCc1ccc(NC(=O)CSC2=Nc3ccccc3C3=NC(CCC(=O)NCc4ccco4)C(=O)N23)cc1 (stereo not drawn) -12.9%
CCOC(=O)c1c(NC(=O)/C=C/c2ccc(OCC)cc2)sc(C)c1C -7.71%
COC(=O)C(NC(=O)CC(C)C)(Nc1nc2c(s1)CCCC2)C(F)(F)F (stereo not drawn) -13%
Cc1cc(C)c(NC(=O)Cn2c(=O)n(CC(=O)NCc3ccccc3Cl)c(=O)c3sccc32)c(C)c1 -13.7%
CC(=O)c1cc2c(cc1N/C(=N/S(=O)(=O)c1ccc(C)cc1)c1ccccc1)OCO2 -15.1%
COC(=O)c1ccc(NC(=O)CCS(=O)(=O)c2ccc(Br)cc2)cc1 -8.65%
CCC(=O)N1CCc2cc(Br)cc(S(=O)(=O)N3CCC(C(=O)Nc4ccc(OC)cc4)CC3)c21 -21.5%
COc1ccc(C(=O)NC2(C(F)(F)F)C(=O)NC(C)=C2C#N)cc1OC (stereo not drawn) -7.72%
COc1ccc(-c2cc(C(=O)O)n(Cc3ccccc3)n2)cc1 0.355%
O=C(CSc1nc2ccccc2nc1Cc1ccccc1)NCc1ccccc1Cl -12.6%
COc1ccc(NC(=O)CSc2nc(-c3cccs3)cc(C(F)(F)F)n2)cc1OC -19.9%
CCCCOc1ccc(C(=O)NCCS(=O)(=O)N2CCN(c3ccc(F)cc3)CC2)cc1 -11.7%
CCc1cnc2c(c1SCC(=O)N1CCCCC1)c(=O)n(C)c(=O)n2C -14.8%
CCOc1ccc(CNCc2c(C(=O)O)n(Cc3ccccc3F)c3cc(OC)ccc23)cc1 -16.6%
Cc1ccc(S(=O)(=O)N(CC(O)Cn2c3ccccc3c3ccccc32)c2cccc(C(N)=O)c2)cc1 (stereo not drawn) -0.253%
Cc1ccc(C)c(NC(=O)CN2C(=O)CCc3ccccc32)c1 -33.1%
CCCCN(CC)CCCNC(=O)c1sc2nc(C)cc(C)c2c1-n1cccc1 0.756%
Cc1cccc(OC(C)C(=O)Nc2ncn[nH]2)c1 (stereo not drawn) -24.4%
CCc1ccc(NC(=O)c2ccc3c(O)c(S(=O)(=O)c4ccc(Cl)cc4)c(=O)[nH]c3c2)cc1 -16.3%
COc1ccc(CN(C(=O)COc2ccccc2OC)C2CCS(=O)(=O)C2)cc1 (stereo not drawn) -4.36%
Cc1cccc2nc(-c3ccco3)c(Nc3ccc4c(c3)OCO4)n12 -12.7%
CCOC(=O)C1CCCN(S(=O)(=O)c2ccc(F)c(C(=O)Nc3ccc(F)c(F)c3)c2)C1 (stereo not drawn) -34.4%
CCN(CC)c1cc(C)c2cc(NC(=O)c3cccc(OC)c3)ccc2n1 -8.8%
Cc1ccc(-n2nnnc2CNC(=O)C(C)(C)C)cc1C -16.3%
Cc1nc(SC(C)C(=O)Nc2ccccc2C)cc(-c2ccccc2)n1 (stereo not drawn) -4.77%
Cc1ccccc1CNC(=O)c1cnc2sc(N3CCOCC3)nn2c1=O -9.65%
Cc1ccc(-c2nc3c4ccccc4n(CC(=O)N4CCN(c5ccccc5F)CC4)c(=O)n3n2)cc1 -23.4%
Cc1ccc(NC(=O)CN(C)S(=O)(=O)c2ccc3c(c2)n(C)c(=O)c(=O)n3C)cc1C -9.64%
CCn1c2ccccc2c2nnc(SCC(=O)O)nc21 -16.6%
CCOc1ccc(CCNC(=O)Cn2nc(C)n3c(cc4occc43)c2=O)cc1OCC -12.3%
Cc1ccccc1C(=O)c1cccn1CC(=O)NCc1ccccc1 -5.7%
CC(C)Oc1ccc(CNC(=O)c2cc3ccccn3n2)cc1 -2.06%
COc1ccc(CNC(=O)CSc2nc(-c3ccc(OC)cc3)cc(C(F)(F)F)n2)cc1 -6.47%
CCOC(=O)c1ccccc1O -15.9%
Cc1ccc(CCNC(=O)CCCn2nc(C)c3c(C)n(-c4ccccc4)nc3c2=O)cc1 -11.1%
COc1cccc(-c2cc(C(=O)Nc3cc(Cl)ccc3O)on2)c1 -8.04%
Cc1ccc(CN2CCSc3ccc(C(=O)N4CCN(c5ccccc5)CC4)cc32)cc1 -13%
O=C(CC1N=C2c3ccccc3N=C(SCc3ccc(Cl)cc3)N2C1=O)NCc1cccs1 (stereo not drawn) -12.5%
COc1ccc(N2CCN(C(=O)C3CCN(S(=O)(=O)c4cccs4)CC3)CC2)cc1 -11.4%
Cc1ccc2c(c1)c1c(c(=O)n(-c3cccc(Cl)c3)c(=O)n1CC(=O)Nc1c(C)cccc1C)n2C -3.26%
CCOC(=O)c1ccccc1NC(=O)CSc1nc2cn(CC)nc2c(=O)n1Cc1ccc(Cl)cc1 -6.56%
Cc1ccc(/C=C/c2onc(C)c2S(=O)(=O)N2CCC(C(=O)N3CCC(N(C)C(C)C)CC3)CC2)cc1 -23.7%
Cc1ccc(-n2c(Cc3ccccc3)nnc2SCc2nc(-c3cccs3)no2)cc1 -8.85%
O=c1c2cc3c(cc2n(Cc2ccc(Cl)cc2)c(=O)n1Cc1nc(-c2ccccc2)no1)OCO3 13.4%
Cc1nc(-n2nc(C)c(Cc3ccccc3Cl)c2C)sc1C(=O)Nc1ccccc1F -16.9%
CN1C(=O)Cc2cc(S(=O)(=O)N3CCN(c4ccccc4F)CC3)ccc21 -16.2%
O=C(Nc1cccc(Cl)c1)c1cnc2sc(N3CCCC3)nn2c1=O -4.48%
COc1ccc(CNC(=O)Cc2c(C)c3cc4c(C)coc4c(C)c3oc2=O)cc1 -11.5%
Cc1ccc(-c2noc(C(C)NS(=O)(=O)c3ccc(C)cc3)n2)cc1 (stereo not drawn) 28%
Cc1ccc(C)c(CN2CCCN(Cc3ccc(F)cc3)S2(=O)=O)c1 5.93%
COc1ccccc1/C=C/c1nc2ccccc2n1C(C)C -19.9%
COc1ccccc1NC(=O)C(=O)NCC(c1ccc2c(c1)OCO2)N1CCOCC1 (stereo not drawn) -2.09%
CN1C(=O)CC[C@H]1c1cccnc1 -13.3%
COc1ccc(Cl)cc1NC(=O)Cc1ccc(NC(=O)N2CCCCc3ccccc32)cc1 -2.65%
CC(=O)c1ccc(S(=O)(=O)N2CCn3cccc3C2c2ccc(C)cc2)cc1 (stereo not drawn) -6.48%
CCOC(=O)Cn1c(=O)n(CC2CCCO2)c2nc(-c3ccc(C)cc3)nc(C(N)=O)c21 (stereo not drawn) 2.25%
Cc1ccc2nc3c(cc(C(=O)NCC4CCCO4)c(=N)n3C(C)C)c(=O)n2c1 (stereo not drawn) -21.9%
CC(C)c1ccc(C2=CC(c3ccc(C(C)C)cc3)n3nnnc3N2)cc1 (stereo not drawn) -12.1%
C/C(=N\O)[C@@H](C)NCC(C)(C)CN[C@H](C)/C(C)=N/O -13.5%
CCn1c(C)c(C2N3CC4(C)CN2CC(C)(C3)C4=O)c2ccccc21 (stereo not drawn) -9.12%

Source: PubChem BioAssay AID1159614 (National Center for Advancing Translational Sciences (NCATS), 2016)
